Test results published in PubChem BioAssay AID1345082 (National Center for Advancing Translational Sciences (NCATS), 2018).
“And” between values parts separate entries of the source, which are not always exact repeats. Equal values may be shown once. In all, about 94,000 compounds went through this assay and about 4,000 (4.3%) were called active. The shares of active, inactive and inconclusive entries below differ from those in the screen. Calls come from the whole dose curve; as a rule, active = well fitted inhibition curve with a large enough effect; inconclusive = small, poorly fitted or top-dose-only effect; inactive = no such curve, though single readings can be large or run the other way. Where the call is inconclusive, the potency comes from a doubtful curve fit.

Test: Cytotoxic Profiling in NIH 3T3 Cell Line of Diverse Libraries Using Quantitative High-Throughput Screening; note: nearly all actives have a fitted effect of over 55% in size
Conditions: NIH 3T3 viability, CellTiter-Glo ATP luminescence, 48-72 h; activity change, negative = cytotoxicity: at 96.7 µM (top of the series) unless noted; series mostly up to 96.7 µM
In short: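 Luminescent ATP readout (CellTiter-Glo, 10 min RT) after 48 or 72 hr compound exposure of NIH 3T3 cells seeded at 400 cells/well in 1536-well format; quantitative HTS.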
% is set by controls: 0 for no effect and ±100 for the full control effect; potency is the fitted concentration of half-maximal effect; tags give direction and shape of the fitted curve.

Compound | Potency | activity change, negative = cytotoxicity | outcome
COc1ccc(C(=O)NCCc2noc(-c3cccnc3)n2)cc1OC | inconclusive: 70.8 µM [inhibitor, partial curve, poor fit] |  | 
Cn1cc(-c2ccccc2F)c2nc(COc3ccc(C(=O)O)cc3)cn2c1=O | inconclusive: 20 µM [inhibitor, full curve, poor fit] |  | 
CN(C(=O)c1ccc(Cl)nc1)C1CCc2ccccc21 (centres undefined) |  | inactive: -20% [at 138 µM] | 
CNC(=O)c1cc(C)nc2onc(C3CCN(C(C)=O)C3)c12 (centres undefined) |  | inactive: 1.6% [at 138 µM] | 
Cn1c([C@H]2CCN(C3CCOCC3)C2)nc2ccccc21 |  | inactive: -5.14% [at 230 µM] | 
O=C1NCC(=O)N2CCN(C(=O)c3cnnn3-c3ccccc3)CC12 (centres undefined) |  | inactive: -4.31% | 
CN(C)Cc1ccc(-c2cc3c(ccn3Cc3ccncc3)c(N3CCOCC3)n2)cc1 | inconclusive: 50.1 µM [inhibitor, partial curve, poor fit] |  | 
COc1cccc(Cl)c1-c1nccc2c(=O)cc(N(C)C)oc12 | active: 50.1 µM |  | 
COc1ccc(OC2CCN(C(C)=O)CC2)c(C(=O)NC(C)Cc2cccs2)c1 (centres undefined) | inconclusive: 63.1 µM [inhibitor, partial curve, poor fit] |  | 
Cc1ccc(NC(=O)c2cc3n(n2)CC(c2ccc4c(c2)OCO4)OC3)c(Cl)c1 (centres undefined) |  | inactive: -14.8% | 
O=C(c1cn(-c2ccccc2)nn1)N1CCOC(c2ccc(F)cc2)C1 (centres undefined) | inconclusive: 56.2 µM [inhibitor, partial curve, poor fit] |  | 
N#Cc1cccc(CN2CCCC(c3nc4ccc(F)cc4c(=O)[nH]3)C2)c1 (centres undefined) | inconclusive: 44.7 µM [inhibitor, partial curve, poor fit] and inconclusive: 50.1 µM [inhibitor, partial curve, poor fit] |  | 
CCOC(=O)[C@@H]1CN(C(=O)OCC(C)(C)C)[C@H]2c3ccccc3O[C@@H]12 | inconclusive: 50.1 µM [inhibitor, partial curve, poor fit] |  | 
O=C(c1ccccc1)N1Cc2ccccc2CC2(CCCN2CC2CCNC2)C1 (centres undefined) | inconclusive: 50.1 µM [inhibitor, partial curve, poor fit] |  | 
COC[C@@H]1CN(C(=O)c2ccccc2OC)C[C@H]1c1ccncc1 |  | inactive: -5.75% | 
O=C(NCc1ccccc1Cn1cccn1)c1ccc2cccc(F)c2n1 | inconclusive: 50.1 µM [inhibitor, partial curve, poor fit] |  | 
O=C1COCC2(CN(Cc3ccsc3)C2)CN1Cc1cccc(OC(F)(F)F)c1 | active: 44.7 µM |  | 
O=C(CCc1conc1-c1ccc(F)cc1)NCc1cccc(Br)c1 | inconclusive: 35.5 µM [inhibitor, partial curve] |  | 
COCCN1C(=O)[C@@H]2C[C@@H](CN2C(=O)C2CCOCC2)Oc2ccccc21 | inconclusive: 3.16 µM [inhibitor, full curve, poor fit] |  | 
CC(=O)N1CCN(Cc2nc3c(n2Cc2ccccc2)C(=O)N(Cc2ccccc2C#N)CCN3)CC1 | inconclusive: 15.8 µM [inhibitor, full curve, poor fit] |  | 
O=C([C@@H]1C[C@H](c2ccc(F)cc2)N(Cc2ccccc2Cl)C1)N1CCN(CCO)CC1 | inconclusive: 50.1 µM [inhibitor, partial curve, poor fit] |  | 
C=CCNC(=O)N1CCOC(CN(CC(C)C)C(=O)c2ccccc2)C1 (centres undefined) |  | inactive: -3.73% | 

Compound | Potency | activity change, negative = cytotoxicity | outcome
CCCCOC(=O)N1CCC2(CC1)[C@H](C(=O)OCC)[C@@H](OC)C(=O)N2C | inconclusive: 50.1 µM [inhibitor, partial curve, poor fit] |  | 
COc1ccc(CC(=O)NC2CCN(c3cc(-c4ccc(F)cc4)[nH]n3)CC2)cc1OC | inconclusive: 28.2 µM [inhibitor, partial curve] |  | 
O=C(C[C@@H]1C[C@H]2O[C@H](CNC3CCNCC3)[C@@H](O)[C@H]2O1)N1CCOCC1 |  | inactive: -2.78% | 
CCOc1cccc2c1OC[C@@H]1CN(CCC#N)C(=O)CCN(C(=O)c3cccs3)[C@H]21 | inconclusive: 79.4 µM [inhibitor, partial curve, poor fit] |  | 
Cc1ccc(Cl)cc1N1CCN(c2cc(C3CC(O)C3)ncn2)CC1 (centres undefined) | inconclusive: 31.6 µM [inhibitor, full curve] |  | 
Cc1ncccc1C(=O)N1CCCCCC1c1nnc(-c2ccccc2)o1 (centres undefined) |  | inactive: -12.5% | 
O=C(NCc1cccnc1)C1CCCN(c2ccnc3ccnn23)C1 (centres undefined) | inconclusive: 44.7 µM [inhibitor, partial curve, poor fit] |  | 
CC(C)n1nccc1S(=O)(=O)N[C@@H]1[C@@H](Cc2ccccc2)[C@H]2OCC[C@@H]12 | inconclusive: 56.2 µM [inhibitor, partial curve, poor fit] |  | 
O=C(NCc1cc(F)ccc1F)C1Cn2cccc2C(=O)N1Cc1ccccc1 (centres undefined) |  | inactive: -17.4% | 
O=C(NCc1nc(-c2ncccn2)no1)C1CCCN(Cc2ccco2)C1 (centres undefined) |  |  | inactive
Cc1cc(Cl)ccc1-n1nc(C)c([C@@H]2C=C[C@@H](NC(=O)c3ccc(N(C)C)cc3)C2)c1C | inconclusive: 44.7 µM [inhibitor, partial curve, poor fit] |  | 
COc1cccc(-c2ccc(C(=O)N3CCC(NC(=O)C4CCCC4)CC3)cc2)c1 | inconclusive: 39.8 µM [inhibitor, full curve, poor fit] and inconclusive: 50.1 µM [inhibitor, partial curve, poor fit] |  | 
C[C@@H](NC(=O)c1cccs1)c1c(-c2ccc(F)cc2)noc1C(=O)O | inconclusive: 112 µM [inhibitor, single point] |  | 
CC(C)c1ccc(NC(=O)CN2C(=O)NC(c3ccccc3Cl)C3=C2COC3=O)cc1 (centres undefined) | inconclusive: 56.2 µM [inhibitor, partial curve, poor fit] |  | 
CCCCNC(=O)N1CC(C(=O)NCc2ccco2)CC(c2ccc(OC)c(OC)c2)C1 (centres undefined) |  | inactive: -6.09% | 
Cc1ccc(OCc2nc(C3CN(C(=O)Cc4ccsc4)C3)no2)cc1 | inconclusive: 50.1 µM [inhibitor, partial curve, poor fit] |  | 
O=C(Cc1ccsc1)N1CCC2(CC1)CN(Cc1ccccc1)CC2CO (centres undefined) | inconclusive: 50.1 µM [inhibitor, partial curve, poor fit] |  | 
O=C(NCc1cccnc1)C1CCCN(c2cnn(Cc3ccccc3)c(=O)c2)C1 (centres undefined) |  | inactive: -24.1% | 
COCCC1(NC(=O)Cc2cccc(OC)c2)CCN(S(C)(=O)=O)CC1 |  | inactive: -10.4% | 
COc1cccc(CNC(=O)c2nnn3c2COC(c2ccc(C)cc2)C3)c1 (centres undefined) |  | inactive: -23.6% | 
Cc1noc(C)c1-c1cc2cc(CN3CCN(C)CC3)oc2c(NC2CCN(C)CC2)n1 | active: 89.1 µM |  | 
COc1cccc(CN2CCCC(c3nc(C(C)C)no3)CCNC(=O)CC2)c1 (centres undefined) |  | inactive: -27% | 

Compound | Potency | activity change, negative = cytotoxicity | outcome
COCC(NC(=O)c1ccc2nc(C3CCCCC3)oc2c1)c1ccnn1C (centres undefined) |  | inactive: -23.7% | 
O=C(C1CCCC1)N1CCC(C(=O)N2CCC(c3ccccc3)CC2)CC1 | inconclusive: 39.8 µM [inhibitor, partial curve, poor fit] |  | 
Cc1nc(-c2ccc(Cl)cc2)n(Cc2ccc(F)cc2)c(=O)c1CCO | inconclusive: 28.2 µM [inhibitor, full curve, poor fit] |  | 
COc1ccc2c(c1)CCN=C2C[C@H]1CN(C(=O)c2cccc(F)c2)CC[C@H]1CC(=O)O |  | inactive: -2.37% | 
CN(C)C[C@@H]1CN(Cc2ccccn2)C[C@H]1NC(=O)c1cccc(Cl)c1 | inconclusive: 70.8 µM [inhibitor, single point] |  | 
O=C(CCC(=O)N1CCn2nc(Cc3ccccc3)cc2C1)NC1CCCC1 |  | inactive: -13.9% | 
COc1ccc(-c2nc(-c3c(C)noc3C)cc3c2cc(C)n3C)cn1 | inconclusive: 56.2 µM [inhibitor, partial curve, poor fit] |  | 
O=C(Nc1ccc(F)cc1)N1CCC(O)(c2csc(CN3CC[C@@H](O)C3)n2)CC1 | inconclusive: 126 µM [inhibitor, single point] |  | 
O=C1c2cc(N3CCOCC3)nc(-c3cnc4[nH]ccc4c3)c2CN1CC1CC1 |  | inactive: -62.6% [at 138 µM] | 
COC(=O)[C@H](Cc1ccc(OC)cc1)NC(=O)[C@H]1CN(C(=O)Nc2ccccc2)CCN1C(=O)C1CCCCC1 | inconclusive: 89.1 µM [inhibitor, single point] |  | 
COCCC(=O)NC1CCN(c2cnn(Cc3ccccc3)c(=O)c2)CC1 |  | inactive: 4.78% | 
COc1ccc(C(=O)N2CCC3(CC2)OC(=O)N(Cc2cccnc2)C3(C)c2ccccc2)cn1 (centres undefined) | active: 39.8 µM |  | 
O=C(NCc1ccccc1)c1ccc2c(c1)OCCN(CCC(F)(F)F)C2 | inconclusive: 79.4 µM [inhibitor, partial curve, poor fit] |  | 
O=C(C1CCN([S+](=O)([O-])c2cccc(C(F)(F)F)c2)CC1)N1CCC(N2CCOCC2=O)CC1 |  | inactive: -27.9% | 
Cc1ccc(-n2c(C3CCN(C(=O)c4cc(C)ccc4C)CC3)n[nH]c2=O)cc1 | inconclusive: 6.31 µM [inhibitor, partial curve, poor fit] |  | 
Cc1ccc(NC(=O)O[C@@H]2CO[C@H]3[C@@H]2OC[C@@H]3Nc2nccc(-c3ccccc3)n2)cc1 |  | inactive: -22.1% [at 174 µM] | 
O=C1[C@H]2CN(Cc3cc(F)c(F)cc3F)C[C@H]2C(=O)N1Cc1ccc2c(c1)OCO2 |  | inactive: -22.2% | 
Cn1ncc2c(C(=O)NCC3CCCCC3)cc(-c3ccccc3C(F)(F)F)nc21 | inconclusive: 22.4 µM [inhibitor, partial curve] |  | 
COc1cccc(CN2CCc3nc(C4CC4)nc(-c4ccc(O)cc4)c3C2)c1 | inconclusive: 44.7 µM [inhibitor, partial curve, poor fit] |  | 
CCN1CCN(C(=O)c2ccc3nnc(-c4cccc(C(F)(F)F)c4)n3c2)CC1 |  | inactive: -7.26% | 
